# Measured values from publication PMC4336329 (PLoS ONE, 2015).
# In all, about 310,000 compounds went through this assay and about 14,000 (4.5%) showed an effect of 50% or more. The effect is printed as a negative number. Some of the results follow.
# Target: human ether-à-go-go-related gene (hERG) potassium channel (human, UniProt Q12809)
# Assay: primary screen, population patch clamp on CHO cells stably expressing hERG
# 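Further: peak tail current of the secondary pulse compared with the same well before compound.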
# Chain of human ether-à-go-go-related gene (hERG) potassium channel (Q12809 whole entry, looked up): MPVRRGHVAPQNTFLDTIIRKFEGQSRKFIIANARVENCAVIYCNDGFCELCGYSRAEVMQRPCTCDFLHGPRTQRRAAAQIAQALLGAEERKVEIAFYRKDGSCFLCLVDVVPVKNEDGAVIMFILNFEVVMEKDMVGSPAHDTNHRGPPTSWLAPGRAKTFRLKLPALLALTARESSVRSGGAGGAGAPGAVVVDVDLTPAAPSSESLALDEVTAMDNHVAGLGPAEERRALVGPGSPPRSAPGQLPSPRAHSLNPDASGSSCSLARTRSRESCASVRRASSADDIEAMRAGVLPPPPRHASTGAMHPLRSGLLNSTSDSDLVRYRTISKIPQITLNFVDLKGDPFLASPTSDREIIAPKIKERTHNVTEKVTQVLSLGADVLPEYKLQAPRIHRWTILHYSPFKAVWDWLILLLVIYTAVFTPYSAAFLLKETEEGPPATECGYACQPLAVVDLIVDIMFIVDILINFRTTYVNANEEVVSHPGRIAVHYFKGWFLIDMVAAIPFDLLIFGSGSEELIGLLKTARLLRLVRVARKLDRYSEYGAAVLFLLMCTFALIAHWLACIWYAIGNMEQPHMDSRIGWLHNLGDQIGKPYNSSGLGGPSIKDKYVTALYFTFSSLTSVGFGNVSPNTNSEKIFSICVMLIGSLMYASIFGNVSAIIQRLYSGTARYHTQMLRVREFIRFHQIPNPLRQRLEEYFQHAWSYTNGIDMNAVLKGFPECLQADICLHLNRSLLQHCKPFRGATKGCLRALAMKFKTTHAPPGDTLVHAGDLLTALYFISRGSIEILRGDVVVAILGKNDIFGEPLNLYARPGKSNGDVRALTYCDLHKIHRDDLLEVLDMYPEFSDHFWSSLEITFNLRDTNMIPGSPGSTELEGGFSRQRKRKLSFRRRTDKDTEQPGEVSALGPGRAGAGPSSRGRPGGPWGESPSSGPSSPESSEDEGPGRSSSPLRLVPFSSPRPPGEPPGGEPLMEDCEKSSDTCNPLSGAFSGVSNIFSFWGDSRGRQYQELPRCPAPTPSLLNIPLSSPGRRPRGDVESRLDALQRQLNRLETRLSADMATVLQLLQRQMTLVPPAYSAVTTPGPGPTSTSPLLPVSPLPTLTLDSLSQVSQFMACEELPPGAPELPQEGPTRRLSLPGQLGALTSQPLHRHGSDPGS
row,SMILES,"hERG current change (%, negative = inhibition) at 10uM"
1,O=C1CC(c2cccc(Cl)c2)C(n2cncn2)C(=O)C1C1NCCc2ccccc21 (stereo not shown),-0.00052%
2,Cc1ccc(S(=O)(=O)NCCNS(=O)(=O)c2ccc(C)cc2)cc1,9.24%
3,CCC(C)(C)NC(=O)C(c1ccccc1)N(Cc1cccnc1)C(=O)c1csnn1 (stereo not shown),-12.1%
4,CN(CCc1ccccn1)C(=O)Nc1ccc(F)cc1,12.7%
5,Cc1noc(C)c1C(=O)N(C)Cc1ccccc1,16.4%
6,COc1ccc(N(CC(=O)NC(C)C)S(=O)(=O)c2ccc(NC(C)=O)cc2)cc1,2.29%
7,CCOC(=O)C1=C(C)NC(=O)NC1c1cc(C)sc1C (stereo not shown),11.7%
8,COC(CN(C)S(=O)(=O)c1cc2c3c(c1)CCC(=O)N3CCC2)OC,10.6%
9,Cn1nc(C(=O)Oc2cc(=O)n(C)c3ccccc23)c2ccccc2c1=O,15.7%
10,CCn1c(SCC(=O)Nc2ccc3c(c2)n(C)c(=O)n3C)nnc1-c1ccncc1,7.64%
11,O=C(CC1C(=O)NCCN1Cc1ccccc1C(F)(F)F)NCCN1CCCCC1=O (stereo not shown),16.9%
12,CC(C)CNC(=O)[C@@H]1CSC2c3ccccc3C(=O)N21 (stereo partly shown),11.6%
13,Cl.O=C1OC(CN2CCOCC2)CN1N=Cc1ccc([N+](=O)[O-])o1 (stereo not shown),3.83%
14,O=C(O)c1ccc(Cl)c(S(=O)(=O)N(Cc2ccccc2)c2ccccc2)c1,7.76%
15,N#Cc1c(N)nc2c(c1-c1ccncc1)CCCCC2,-12.3%
16,CCn1nnnc1SCC(=O)N1CCOCC1,8.39%
17,CC(C)COC(=O)NCCCOC(=O)Nc1ccccc1,3.21%
18,c1ccc(-c2nc3ccccc3[nH]2)nc1,10.2%
19,CC1(C)Oc2ccc3ccc(=O)oc3c2/C(=C/NNC(N)=S)C1=O,10.3%
20,Cc1cc(C)n2nc(-c3sccc3-n3cccc3)cc2n1,15.6%
21,COCCCNC(=O)CSc1nc2ccc(N3CCOCC3)cc2c(=O)n1CCc1ccccc1,-59.8%
22,Cn1cc([N+](=O)[O-])c(C(=O)Nc2ccn(C34CC5CC(CC(C5)C3)C4)n2)n1,-20.9%
23,CCCc1cc(=O)[nH]c(SCc2nc3ccc([N+](=O)[O-])cc3[nH]2)n1,0.26%
24,O=c1ccc(N=Nc2ccccc2)ccc1O,12.7%
25,COc1ccccc1CNC(=O)C(NC(=O)c1ccc(C)cc1)C(C)C (stereo not shown),-4.06%
